In the supplement of paper PMC10670038:
Where “and” joins values, the source holds several entries; their conditions need not be identical. Equal values may be shown once. Where a name gives a salt, the structure may show the parent alone. ± gives the standard deviation of the averaged measurements. Whole data set: some 2,000 compounds, median “relative cell viability vs DMSO, compound alone” near 1.1, cut for the lowest 2% near 0.29. The list shows a part of the results.

tested on: TE10; assay: relative cell viability vs DMSO, compound alone (fraction); TE10 is an esophageal squamous carcinoma line; higher = less cytotoxic; conditions: 2 µM; 48 h
Description: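 TE10 ESCC cells (1,000/well, 384-well plates) were treated with Selleck bioactive library compounds at 2 uM alone for 48 h. Viability was read by CellTiter-Glo and expressed relative to DMSO wells. Two technical replicates (A, B).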

| SMILES | relative cell viability |
| --- | --- |
| C[C@H]1C[C@H]2[C@@H]3CCC4=CC(=O)C=C[C@]4(C)[C@H]3C(=O)C[C@]2(C)[C@@]1(O)C(=O)CO [Meprednisone] | 0.927 ± 0.17 |
| CCC(=O)OCC(=O)[C@@]1(OC(=O)CC)[C@@H](C)C[C@H]2[C@@H]3CCC4=CC(=O)C=C[C@]4(C)[C@@]3(F)[C@@H](O)C[C@@]21C [Betamethasone Dipropionate] | 0.975 ± 0.02 |
| Cc1ccc(S(=O)(=O)OCC(=O)Nc2ccc(C(=O)O)c(O)c2)cc1 | 1.19 ± 0.077 |
| O=C(O)CCCN1CCC(O[C@@H](c2ccc(Cl)cc2)c2ccccn2)CC1 [Bepotastine Besilate] | 1.11 ± 0.08 |
| O=C(Nc1ncc(SCCN2CCCC2)s1)[C@]1(c2ccc(S(=O)(=O)C3CC3)cc2)C[C@H]1C1CCCCC1 | 0.896 ± 0.039 |
| NNC(=O)c1ccncc1 [Isoniazid] | 1.102 ± 0.0026 |
| CC1(C)C=C(CN2C/C(=C\c3ccc(F)cc3)C(=O)/C(=C/c3ccc(F)cc3)C2)C(C)(C)N1O | 0.8405 ± 0.0057 |
| CN1CCN(Cc2ccc(-c3cnc4[nH]cc(-c5ccc6[nH]ccc6c5)c4c3)cc2)CC1 | 1.028 ± 0.0046 |
| CCOC(=O)C1=C(C)NC(C)=C(C(=O)OC)C1c1cccc(Cl)c1Cl (stereo unspecified) [Felodipine] | 1.1 ± 0.067 |
| CCOC(=O)c1ccc(NC2CCCCC2)c(N)c1 [Ferrostatin-1 (Fer-1)] | 1.08 ± 0.052 |
| O=C1c2c(O)ccc(O)c2C(=O)c2c(NCCNCCO)ccc(NCCNCCO)c21 [Mitoxantrone] | 0.415 ± 0.014 |
| O=C1c2c(O)ccc(O)c2C(=O)c2c(NCCNCCO)ccc(NCCNCCO)c21 [Mitoxantrone HCl] | 0.606 ± 0.019 |
| CC1(C)CC[C@]2(NC(=O)C(C)(F)F)CC[C@]3(C)[C@H](C(=O)C=C4[C@@]5(C)C=C(C#N)C(=O)C(C)(C)[C@@H]5CC[C@]43C)[C@@H]2C1 [Omaveloxolone (RTA-408)] | 0.59 ± 0.032 |
| O=C(NC(Cc1cc(=O)[nH]c2ccccc12)C(=O)O)c1ccc(Cl)cc1 (stereo unspecified) [Rebamipide] | 1.13 ± 0.081 |
| COC(=O)/C=C/C(=O)OC [Dimethyl Fumarate] | 1.1 ± 0.017 |
| CC(C)c1cc(C(C)C)c(CC(=O)NS(=O)(=O)Oc2c(C(C)C)cccc2C(C)C)c(C(C)C)c1 [Avasimibe] | 1.12 ± 0.032 |
| CCCCCCCCCCCCCCCc1cccc(O)c1C(=O)O [Anacardic Acid] | 1.15 ± 0.032 |
| O=C(NNc1nc2cc(F)ccc2n2cccc12)c1cnccn1 | 0.624 ± 0.035 |
| CN(c1ncccc1CNc1nc(Nc2ccc3c(c2)CC(=O)N3)ncc1C(F)(F)F)S(C)(=O)=O | 0.867 and 1.03 and 1.09 |
| CCc1ccc(OCc2ccccc2C(=O)Nc2ccc3nc(C)cc(N)c3c2)cc1 | 0.687 ± 0.079 |
| CN(C)CCc1c[nH]c2ccc(CS(=O)(=O)N3CCCC3)cc12 [Almotriptan Malate] | 0.879 ± 0.049 |
